Laboratory results from the supplement of paper PMC10369915.
The other results are listed elsewhere or left out. Cut-off read from the data, not from the text of the source: active = 3.2 or more and inactive = the rest. Only a few entries rise above the background.

How the values were obtained:
Test in all cases: enrichment score (SH2-bound / input frequency) (ratio); bacterial display of known human phosphotyrosine sites (pTyr-Var adds point mutants) read by sequencing; higher = stronger binding; tyrosines were phosphorylated by kinases first
Conditions in all cases: peptide library: Human pTyr
[1] = target: SHP2 C-SH2 domain E139D
[2] = target: SHP2 C-SH2 domain wild-type
[3] = target: SHP2 N-SH2 domain L43F
[4] = target: SHP2 N-SH2 domain T42A
[5] = target: SHP2 N-SH2 domain wild-type
[6] = target: SHP2 N-SH2 domain T52S
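Note: displayed peptides selected on beads carrying the immobilized SH2 domain, with library peptides lacking any tyrosine serving as negative controls.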

Binder	enrichment score [1]	enrichment score [2]	enrichment score [3]	enrichment score [4]	enrichment score [5]	enrichment score [6]
RHYNGEAYEDDEHHP [DNJA1_HUMAN_381]	inactive: 1.88	inactive: 0.42	inactive: 1.45	inactive: 0.109	inactive: 0.535	
SVVTQDDYFKDKRVH [DAZL_HUMAN_276]	inactive: 1.01	inactive: 0.88	inactive: 0.923	inactive: 0.819	inactive: 1.09	inactive: 0.899
SMAIHEVYQELIQDV [DEFI6_HUMAN_210]	inactive: 1.07	inactive: 0.868	inactive: 1.29	inactive: 0.95	inactive: 1.06	inactive: 1.01
ARVKEEGYELPANPA [DOK1_HUMAN_398_YA]	inactive: 0.783	inactive: 0.575	inactive: 0.898	inactive: 0.62	inactive: 0.745	inactive: 0.77
AKHINEVYAAKKKRR [DYR1A_HUMAN_111_YA]	inactive: 1.83	inactive: 1.27	inactive: 1.29	inactive: 1.34	inactive: 1.26	inactive: 1.15
KDLFQVIYNVKKKEE [DAB2_HUMAN_170]	inactive: 2.31	inactive: 2.21	inactive: 2.29	inactive: 2.38	active: 3.22	inactive: 2.45
GERWLERYEIDSLIG [DYR1B_HUMAN_111]	inactive: 0.798	inactive: 0.78	inactive: 0.817	inactive: 0.796	inactive: 0.668	inactive: 0.748
FGQVVKAYDRVEQEW [DYR1A_HUMAN_177]	inactive: 0.644	inactive: 0.711	inactive: 0.656	inactive: 0.67	inactive: 0.977	inactive: 0.772
AEDFLKDYIHINIGA [DDX5_HUMAN_297]	inactive: 2.56	inactive: 2.45	inactive: 1.57	inactive: 3.07	inactive: 1.82	active: 3.84
KVMENFIYESMRYQP [CYP19A1_HUMAN_361]	inactive: 0.926	inactive: 0.969	inactive: 0.858	inactive: 0.836	inactive: 1.12	inactive: 0.771
KHDTEMKYYIVHLKR [DYR1A_HUMAN_219]	inactive: 3.08	active: 3.33	inactive: 2.71	inactive: 2.58	active: 4.03	active: 3.37
KKVLNHGYDDDNHDY [DYR1B_HUMAN_92]	inactive: 0.694	inactive: 0.88	inactive: 1.01	inactive: 0.989	inactive: 0.756	inactive: 0.685
DVIQEVEYVKEEAKM [DDX41_HUMAN_414]	inactive: 1.14	inactive: 0.88	inactive: 1.05	inactive: 0.933	inactive: 1.1	inactive: 1.17
GQYNDNLYGTSVQSV [DLG2_HUMAN_755]	inactive: 0.606	inactive: 0.477	inactive: 0.594	inactive: 0.473	inactive: 0.463	inactive: 0.49
EYQKLYTYIQSRFYR [DYRK3_HUMAN_369]	active: 3.27	active: 4.34	inactive: 2.95	inactive: 2.3	active: 3.71	active: 4.09
NLYAGDYYRVQGRAV [DDR1_HUMAN_797]	inactive: 1.06	inactive: 0.915	inactive: 0.812	inactive: 0.685	inactive: 0.916	inactive: 0.797
SGDQIDTYELSGGAR [DYN1_HUMAN_354]	inactive: 0.652	inactive: 0.474	inactive: 0.606	inactive: 0.472	inactive: 0.655	inactive: 0.605
YKHINEVYYAKKKRR [DYR1A_HUMAN_111]	inactive: 0.854	inactive: 0.912	inactive: 0.831	inactive: 0.721	inactive: 1.08	inactive: 0.705
SEKKPSKYPLCSADA [DIDO1_HUMAN_1244]	inactive: 1.14	inactive: 0.884	inactive: 0.806	inactive: 0.988	inactive: 1.21	inactive: 0.939

Binder	enrichment score [1]	enrichment score [2]	enrichment score [3]	enrichment score [4]	enrichment score [5]	enrichment score [6]
GQANDNLYGTSVQSV [DLG2_HUMAN_755_YA]	inactive: 0.612	inactive: 0.535	inactive: 0.52	inactive: 0.501	inactive: 0.561	inactive: 0.53
DGADDDNYDAIVKNG [DYR1A_HUMAN_145_YA]	inactive: 1.01	inactive: 0.909	inactive: 1.02	inactive: 0.949	inactive: 1.15	inactive: 1.17
DDRGRSDYDGIGSRG [DDX3X_HUMAN_104]	inactive: 0.621	inactive: 0.628		inactive: 0.59	inactive: 0.436	inactive: 0.494
VNDDQSFYADIYMED [DPYL2_HUMAN_32]	inactive: 1.28	inactive: 1.49	inactive: 1.43	inactive: 1.21	inactive: 1.43	inactive: 1.42
ERADLIAYLKKATNE [CYC_HUMAN_98]	inactive: 0.917	inactive: 0.842	inactive: 0.721	inactive: 0.681	inactive: 0.906	inactive: 0.899
IKIRPGEYEQFESTI [E41L1_HUMAN_343]	inactive: 0.842	inactive: 0.779	inactive: 1.61	inactive: 0.702	inactive: 0.913	inactive: 0.884
KSLDGALYDDEDDDD [DEN1B_HUMAN_520]	inactive: 1.04	inactive: 0.967	inactive: 0.695	inactive: 0.987	inactive: 1.07	inactive: 1.05
STSGESLYHVLGLDK [DNJC5_HUMAN_17]	inactive: 1.47	inactive: 1.47	inactive: 1.6	inactive: 1.48	inactive: 1.9	inactive: 1.57
EHQKVATYIQSRFAR [DYRK4_HUMAN_264_YA]	inactive: 1.69	inactive: 1.55	inactive: 1.91	inactive: 1.77	inactive: 2.04	inactive: 1.71
DIRTIFSYFKGQRQT [DDX41_HUMAN_364]	inactive: 2.33	inactive: 2.45	inactive: 2.23	inactive: 2.02	inactive: 2.68	inactive: 1.83
AQYQPEDYARFEAKI [DLG2_HUMAN_505]	inactive: 0.787	inactive: 0.706	inactive: 0.797	inactive: 0.657	inactive: 0.859	inactive: 0.993
SGHTVADYLKFKDLI [DYR1A_HUMAN_449]	inactive: 1.24	inactive: 1.02	inactive: 1.12	inactive: 1.09	inactive: 1.46	inactive: 1.17
EDEDDEDYVPAVPLR [DDX41_HUMAN_33_YA]	inactive: 0.914	inactive: 0.715	inactive: 0.631	inactive: 0.88	inactive: 0.837	inactive: 0.858
TGAESGEYEMLGEGL [DCTN2_HUMAN_86_YA]	inactive: 0.753	inactive: 0.506	inactive: 0.696	inactive: 0.622	inactive: 0.658	inactive: 0.631
KPLYWDLYEHAQQQL [DOK1_HUMAN_341]	inactive: 1.52	inactive: 1.73	inactive: 1.65	inactive: 1.76	inactive: 1.86	inactive: 1.62
KNTYDVVYLKVAKPS [DLG4_HUMAN_240]	inactive: 0.815	inactive: 0.804	inactive: 0.685	inactive: 0.771	inactive: 0.644	inactive: 0.891
KKSRPAMYDVSPIAY [DNER_HUMAN_711]	inactive: 1.66	inactive: 1.75	inactive: 1.42	inactive: 1.64	inactive: 2.55	inactive: 1.58
TDQNSDGYCQTGTMS [DESP_HUMAN_56]	inactive: 0.78	inactive: 0.889	inactive: 0.739	inactive: 0.71	inactive: 0.482	inactive: 0.81
